According to a collection of fitness landscapes (doi:10.1016/j.celrep.2020.107928):
In all, about 81,000 sequences were measured (“one-hybrid fitness for binding NBS DNA”: median about -0.1, highest 2% from about 0.36 on). This is one part of the list.

B1: Caulobacter ParB omega fusion; a variant is named by its letters at X, in order, B8GW30 (parent)
chain: MESVVVGEPGMSEGRRGLGRGLSALLGEVDAAPAQAPGEQLGGSREAPIEILQRNPDQPRRTFREEDLEDLSNSIREKGVLQPILVRPSPDTAGEYQIVAGERAWRAAQRAGLKTVPIMVRELDDLAVLEIGIIENVQRADLNVLEEALSYKVLMEKFERTQENIAQTIGKSXSHVANXMRLLXLPDEVQSYLVSGELTAXHARAIAAAADPVALAKQIIEGGLSVRETEALARKAPNLSAGKSKGGRPPRVKDTDTQALESDLSSVLGLDVSIDHRGSTGTLTITYATLEQLDDLCNRLTRGI

Variants of: B1
Experiment: one-hybrid fitness for binding NBS DNA (the Noc-binding site; scaled: cognate 1, non-cognate 0); higher = stronger binding
Conditions: with NBS DNA site
How it was run: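 In E. coli USO, a HIS3 reporter with its site placed 19 bp from the promoter was used to select Caulobacter ParB variants randomised at four specificity codons. Growth lasted 48 hours at 37°C on histidine-free M9 containing 0.1 mM IPTG and 5 mM 3-AT. Fitness was taken as the log change in variant-to-wild-type read ratio from Illumina sequencing of pre- and post-selection plasmids, rescaled between the non-cognate and cognate sites.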

Variant | one-hybrid fitness for binding NBS DNA
HTYA | ≤ 0.2
TMWT | ≤ 0.2
VFIG | ≤ 0.2
PQRT | ≤ 0.2
SHHF | ≤ 0.2
IGRC | ≤ 0.2
FPAH | ≤ 0.2
PKAR | ≤ 0.2
TSGR | ≤ 0.2
SVCY | ≤ 0.2
QEEL | ≤ 0.2
GQQI | ≤ 0.2
HVRF | ≤ 0.2
HLIY | ≤ 0.2
YVTA | ≤ 0.2
FRIL | ≤ 0.2
HSTC | ≤ 0.2
AAHS | ≤ 0.2
LHQT | ≤ 0.2
DWDS | ≤ 0.2
ISLG | ≤ 0.2
PWME | ≤ 0.2
VKTR | ≤ 0.2
AQTS | ≤ 0.2

Variant | one-hybrid fitness for binding NBS DNA
VEIS | ≤ 0.2
RWDW | ≤ 0.2
QGSD | ≤ 0.2
HRYA | ≤ 0.2
HYLS | ≤ 0.2
PSFG | ≤ 0.2
VLSY | ≤ 0.2
MSTV | ≤ 0.2
PRMA | ≤ 0.2
RLHD | ≤ 0.2
FSEG | ≤ 0.2
TRKD | ≤ 0.2
AQSI | ≤ 0.2
VWPF | ≤ 0.2
TICW | ≤ 0.2
RVFR | 0.34
QVQS | ≤ 0.2
MLFL | ≤ 0.2
KYPR | ≤ 0.2
FPAQ | ≤ 0.2
EMSE | ≤ 0.2
VTVW | ≤ 0.2
TAIL | ≤ 0.2
NRET | ≤ 0.2

Variant | one-hybrid fitness for binding NBS DNA
QLQE | ≤ 0.2
IAAR | ≤ 0.2
PAQI | ≤ 0.2
VRIG | ≤ 0.2
TWMC | ≤ 0.2
EANS | ≤ 0.2
SCAT | ≤ 0.2
HEYR | ≤ 0.2
TPND | ≤ 0.2
QAHW | ≤ 0.2
GDCR | ≤ 0.2
YTIS | ≤ 0.2
ALLA | ≤ 0.2
QDRR | 0.275
CPMK | ≤ 0.2
TIRQ | ≤ 0.2
SFSI | ≤ 0.2
QMKC | 0.383
QHSD | ≤ 0.2
PTPN | ≤ 0.2
RNGH | ≤ 0.2
AHHN | ≤ 0.2
TPLQ | ≤ 0.2
NVSI | ≤ 0.2

Variant | one-hybrid fitness for binding NBS DNA
PCQI | ≤ 0.2
QLSR | 0.464
TCKG | ≤ 0.2
QTII | ≤ 0.2
LLAD | ≤ 0.2
LETR | ≤ 0.2
RYNK | ≤ 0.2
GLQR | ≤ 0.2
KPDG | ≤ 0.2
VGTC | ≤ 0.2
VYTN | ≤ 0.2
QMAW | ≤ 0.2
AQPD | ≤ 0.2
ACTR | ≤ 0.2
VPLR | ≤ 0.2
QMPM | ≤ 0.2
HMLH | ≤ 0.2
RSSH | ≤ 0.2
KPKA | ≤ 0.2
GYEC | ≤ 0.2
CNTI | ≤ 0.2
RTHP | ≤ 0.2
LTHV | ≤ 0.2
HPMG | ≤ 0.2

Variant | one-hybrid fitness for binding NBS DNA
TYEK | ≤ 0.2
DLAL | ≤ 0.2
DIHG | ≤ 0.2
YMYT | ≤ 0.2
NNYA | ≤ 0.2
WMKT | ≤ 0.2
QRRH | 0.779
RFTW | ≤ 0.2
QVRD | ≤ 0.2
QTYD | ≤ 0.2
IGGV | ≤ 0.2
TKNS | ≤ 0.2
GSCG | ≤ 0.2
SYKW | ≤ 0.2
SLRP | ≤ 0.2
DAKK | ≤ 0.2
TVLM | ≤ 0.2
TRWD | ≤ 0.2
PPEV | ≤ 0.2
VAPF | ≤ 0.2
FRVT | ≤ 0.2
NQFM | ≤ 0.2
DRWE | ≤ 0.2
QHPD | ≤ 0.2

Variant | one-hybrid fitness for binding NBS DNA
TLPA | ≤ 0.2
KKPV | ≤ 0.2
LARY | ≤ 0.2
EYRT | ≤ 0.2
GVNG | ≤ 0.2
PKWC | ≤ 0.2
YTKT | ≤ 0.2
IKPV | ≤ 0.2
QPVC | ≤ 0.2
WSVT | ≤ 0.2
TTDI | ≤ 0.2
RYDV | ≤ 0.2
LYKW | ≤ 0.2
SLHN | ≤ 0.2
YHDS | ≤ 0.2
CHIP | ≤ 0.2
PWIN | ≤ 0.2
HKCR | ≤ 0.2
VGRC | ≤ 0.2
LRVL | ≤ 0.2
KCAW | ≤ 0.2
WQCR | ≤ 0.2
RFCC | ≤ 0.2
LGIE | ≤ 0.2

Variant | one-hybrid fitness for binding NBS DNA
RGPN | ≤ 0.2
NGST | ≤ 0.2
KVNS | ≤ 0.2
KFPL | ≤ 0.2
PWSF | ≤ 0.2
FTNG | ≤ 0.2
SKMI | ≤ 0.2
PVRW | ≤ 0.2
YLGP | ≤ 0.2
LMVT | ≤ 0.2
TDSC | ≤ 0.2
CWSR | ≤ 0.2
RFAH | ≤ 0.2
RCMM | ≤ 0.2
QVFS | ≤ 0.2
ACCY | ≤ 0.2
RKYV | ≤ 0.2
SRCS | ≤ 0.2
TCNE | ≤ 0.2
KHHG | ≤ 0.2
RWAS | ≤ 0.2
KTVR | ≤ 0.2
LFPK | ≤ 0.2
RLWM | ≤ 0.2

Variant | one-hybrid fitness for binding NBS DNA
GVNS | ≤ 0.2
HDTK | ≤ 0.2
TRVD | ≤ 0.2
CKVG | ≤ 0.2
KAIL | ≤ 0.2
VLAL | ≤ 0.2
WTWG | ≤ 0.2
EVGG | ≤ 0.2
SLMN | ≤ 0.2
FNLS | ≤ 0.2
TLMN | ≤ 0.2
KVVC | ≤ 0.2
MWKS | ≤ 0.2
WTSV | ≤ 0.2
DNHC | ≤ 0.2
HVPG | ≤ 0.2
WWRG | ≤ 0.2
RRLT | 0.761
CAYR | ≤ 0.2
PMVV | ≤ 0.2
CLGC | ≤ 0.2
DELW | ≤ 0.2
LRRE | ≤ 0.2
NPYA | ≤ 0.2

Variant | one-hybrid fitness for binding NBS DNA
YSIV | ≤ 0.2
EQRE | ≤ 0.2
IENI | ≤ 0.2
SWTH | ≤ 0.2
FHAL | ≤ 0.2
SKET | ≤ 0.2
VWNR | ≤ 0.2
HKSF | ≤ 0.2
RILY | ≤ 0.2
AFTS | ≤ 0.2
VHPS | ≤ 0.2
EGSC | ≤ 0.2
QVNK | ≤ 0.2
HGHE | ≤ 0.2
WYLS | ≤ 0.2
NLYG | ≤ 0.2
CETD | ≤ 0.2
ENNV | ≤ 0.2
PNSC | ≤ 0.2
TVES | ≤ 0.2
DDMT | ≤ 0.2
NCSR | ≤ 0.2
TILE | ≤ 0.2
QSQN | ≤ 0.2

Variant | one-hybrid fitness for binding NBS DNA
NSRY | ≤ 0.2
STFI | ≤ 0.2
ECLL | ≤ 0.2
CQTN | ≤ 0.2
KCIG | ≤ 0.2
RAIE | ≤ 0.2
ARNY | ≤ 0.2
PYTH | ≤ 0.2
CLPE | ≤ 0.2
MEYD | ≤ 0.2
SLIE | ≤ 0.2
SRWR | ≤ 0.2
FTGC | ≤ 0.2
ISST | ≤ 0.2
CRPS | ≤ 0.2
PGTN | ≤ 0.2
VEHR | ≤ 0.2
YSMI | ≤ 0.2
VYDV | ≤ 0.2
SSEC | ≤ 0.2
FGTR | ≤ 0.2
TYAQ | ≤ 0.2
NSRD | ≤ 0.2
WVNT | ≤ 0.2

Variant | one-hybrid fitness for binding NBS DNA
AWDD | ≤ 0.2
SPEV | ≤ 0.2
QVRH | 0.332
YLLR | ≤ 0.2
CCGG | ≤ 0.2
VKAT | ≤ 0.2
ISDS | ≤ 0.2
RAEV | ≤ 0.2
QKEG | ≤ 0.2
PLYG | ≤ 0.2
CPPV | ≤ 0.2
SYIC | ≤ 0.2
LNGV | ≤ 0.2
AEQC | ≤ 0.2
LRIT | ≤ 0.2
DSHG | ≤ 0.2
TVPD | ≤ 0.2
RHHN | ≤ 0.2
PCPA | ≤ 0.2
QNRY | ≤ 0.2
EITR | ≤ 0.2
KRFG | ≤ 0.2
AKLS | ≤ 0.2
TKQA | ≤ 0.2

Variant | one-hybrid fitness for binding NBS DNA
GWYA | ≤ 0.2
MMST | ≤ 0.2
KRNY | 0.238
RFMQ | ≤ 0.2
TFNL | ≤ 0.2
GEVT | ≤ 0.2
PYWS | ≤ 0.2
MATT | ≤ 0.2
LAPG | ≤ 0.2
FGLR | ≤ 0.2
RYIT | ≤ 0.2
VEVA | ≤ 0.2
NIRS | ≤ 0.2
VEPG | ≤ 0.2
YLRM | ≤ 0.2
CKVR | ≤ 0.2
NRPF | ≤ 0.2
LRTY | ≤ 0.2
SRQI | ≤ 0.2
PRIS | ≤ 0.2
WLQS | ≤ 0.2
NRPT | ≤ 0.2
SCRL | ≤ 0.2
GHHM | ≤ 0.2

Variant | one-hybrid fitness for binding NBS DNA
PHCV | ≤ 0.2
KNDR | ≤ 0.2
VNHS | ≤ 0.2
TLNV | ≤ 0.2
SLSL | ≤ 0.2
YSKS | ≤ 0.2
GLLS | ≤ 0.2
SIHS | ≤ 0.2
KRLY | ≤ 0.2
RVRF | ≤ 0.2
HIYV | ≤ 0.2
DSNH | ≤ 0.2
ADLK | ≤ 0.2
VENL | ≤ 0.2
IKSN | ≤ 0.2
NAFR | ≤ 0.2
QLKG | 0.245
TVKP | ≤ 0.2
